± gives the standard deviation of the averaged measurements. Some of the results follow.

In this assay the test system is PfAP2-G AP2 domain (GST-tagged). The experiment in a line: gcPBM binding intensity (ln(normalized median fluorescence intensity)); higher = stronger DNA binding. An outline of the steps:
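In this array assay, P. falciparum DNA-binding domains with a GST tag, expressed in E. coli, were applied for 1 h to primer-extended double-stranded 36-bp intergenic genomic probes and negative controls on an Agilent 4 × 180k array. Bound protein was visualised with Alexa488 anti-GST antibody at 488 nm. Binding intensity is the highest Masliner-normalised natural-log median intensity across replicate spots of either probe orientation.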
On to “AAACAAAATGGTAACACACACATATATAAATATGTA [CACACA_site6994]”, for which the “gcPBM binding intensity (ln)” value was determined as 10.2 ± 0.35.

In the case of “AACGAGCAAGACGGGGTGCACACAAACTAATATGCC [GTGCAC_site9436]”, the “gcPBM binding intensity (ln)” value was determined as 10.7 ± 0.59.

“ATAATATAAACATATTGTACACATATATTGCTATTT [XGTACX_site2799]”: the “gcPBM binding intensity (ln)” value came to 11.3 ± 0.76.

For the sequence “AAAAAAAAATATATATATATATATATAAATAAATTT [CACACA_negctrl_site519]”, the “gcPBM binding intensity (ln)” value came out at 9.315 ± 0.007.

As for “AAATATAAAAAAAATATATAATTTTTACATCGAATT [CACACA_negctrl_site544]”, the “gcPBM binding intensity (ln)” value turned out to be 9.48 ± 0.38.

For “TAATAAAAGATATATACACACAAATAAATAAATAAA [CACACA_site7818]”, the “gcPBM binding intensity (ln)” value was found to be 9.75 ± 0.014.

In the case of “AAGAAAATAGGGTTCATAGGATTATACTTTTGGAAT [TGCATGCA_negctrl_site80]”, the “gcPBM binding intensity (ln)” value stood at 10.1.

Take “TTCTATGAATTCATAGTGCAAATGAGTTATTTTTTC [GTGCAC_site9709]”: the “gcPBM binding intensity (ln)” value came out at 9.8 ± 0.085.

In the case of “TTATTATTGTTATGTTGTACTTTTACAAACTTTTTG [XGTACX_site8797]”, the “gcPBM binding intensity (ln)” value was 11.4 ± 0.74.

With “ATATATTTATTAAGGTGTACAAAAATTATGTTGCAT [XGTACX_site7546]”, the “gcPBM binding intensity (ln)” value came out at 11.4 ± 0.91.

Turning to “TATTTTATCTAAGGATGTACATTATTAAGAAAATGT [XGTACX_site6123]”, the “gcPBM binding intensity (ln)” value came to 11 ± 0.63.

With “TAGAAATATAATTAATGTACATATGATATTATATAT [XGTACX_site923]”, the “gcPBM binding intensity (ln)” value worked out at 11 ± 0.6.

In the case of “ATTTATTTATATAGAAGTACATATTTATTTATATAT [XGTACX_site6283]”, the “gcPBM binding intensity (ln)” value worked out at 11.2 ± 0.85.

“CTTTTTTAAATTATTGCACACAAAAATGAAAGGAAA [CACACA_site8412]”: the “gcPBM binding intensity (ln)” value was found to be 10.3 ± 0.3.

As for “ACATCAAGCAGACACACACACACACCCACCCACCGA [CACACA_site371]”, the “gcPBM binding intensity (ln)” value came out at 10.4 ± 0.37.

As to “TTTTTAAATATATAATAGAATTGATTGTATTATATA [CACACA_negctrl_site196]”, the “gcPBM binding intensity (ln)” value stood at 9.61 ± 0.29.

On to “TATAGATTCTTTTAATGTACATGTCTTTTCATTTCC [XGTACX_site8348]”, for which the “gcPBM binding intensity (ln)” value turned out to be 11 ± 0.56.

Regarding “ATATATATATATACAACACACATGTAATATATAAAT [CACACA_site3294]”, the “gcPBM binding intensity (ln)” value was found to be 10.1 ± 0.4.

In the case of “TACTGATCCACATTTATACACACCTCGGTTTGTAGA [CACACA_site417]”, the “gcPBM binding intensity (ln)” value was 10.3 ± 0.25.

As to “TTGTGTTCTTATTTTTACACCGAAAAATATTAAAAG [CACACA_negctrl_site535]”, the “gcPBM binding intensity (ln)” value was found to be 10.4 ± 0.42.

Regarding “CCTTTATACATTTTCTGTACTGATATATATTAAAAA [XGTACX_site8467]”, the “gcPBM binding intensity (ln)” value was found to be 11.2 ± 0.67.

Take “GTATGAAAAAAAATATGTACACATATATATTTGGTA [XGTACX_site6309]”: the “gcPBM binding intensity (ln)” value was found to be 11.4 ± 0.83.

“TTGGTTTGAAAGAAAGAAATTATTAAAAAGGAAATA [CACACA_negctrl_site26]”: the “gcPBM binding intensity (ln)” value came to 9.86 ± 0.11.

Take “GATATACTGTCAATTCTACACACCATAGGGGGAGCA [CACACA_site8562]”: the “gcPBM binding intensity (ln)” value worked out at 11.1 ± 0.69.

“ATATAAAAAAAAAAAAAAAAATATATATATATATAT [GTGCAC_negctrl_site251]”: the “gcPBM binding intensity (ln)” value was found to be 9.94 ± 0.83.

Turning to “TAAAAAAAATAGCATACACACATATATACCTATATA [CACACA_site4535]”, the “gcPBM binding intensity (ln)” value came out at 9.73 ± 0.16.

On to “CTTTTTATTAAATATGCATGTGTATCAACAGTGAAT [TGCATGCA_site447]”, for which the “gcPBM binding intensity (ln)” value was found to be 10.3 ± 0.16.

On to “GTTATACGCATATATACACACATATGTAAATATATA [CACACA_site3280]”, for which the “gcPBM binding intensity (ln)” value turned out to be 10.2 ± 0.23.

For “ATGAGTGCACAAATATATATATATATATATATATAT [CACACA_negctrl_site404]”, the “gcPBM binding intensity (ln)” value amounted to 10.3 ± 0.54.

As to “ATCATAACACCTCCACACAAATAAATATAACATATA [XGTACX_negctrl_site269]”, the “gcPBM binding intensity (ln)” value amounted to 10.1 ± 0.42.

As to “CATACACCCGGACACACACACACACCCATATATAAT [CACACA_site4494]”, the “gcPBM binding intensity (ln)” value is 11 ± 0.64.

Consider “TTGTTTTTTTCTTTTTGTACATATACAACATACATA [XGTACX_site8996]”, for which the “gcPBM binding intensity (ln)” value was found to be 11.1 ± 0.79.

As for “TATTAAATATAAGTCACACATAATTTTTCGTCCTTT [CACACA_site5065]”, the “gcPBM binding intensity (ln)” value is 10.06 ± 0.057.

On to “AAACAATTTATGTGTAGTACATGTTGGAGATAATTT [XGTACX_site6000]”, for which the “gcPBM binding intensity (ln)” value was 11.4 ± 0.88.

For “GAAAATATATTATTTACACACATGTTCAAATTAAAA [CACACA_site3761]”, the “gcPBM binding intensity (ln)” value came to 9.97 ± 0.16.

“AAGAAAATATAACAAAGTAAAAACATATTATATATA [TGCATGCA_negctrl_site248]”: the “gcPBM binding intensity (ln)” value worked out at 9.76 ± 0.18.

Regarding “TATATATATTTTTGAAGTACTTATTACACTAGCATT [XGTACX_site8965]”, the “gcPBM binding intensity (ln)” value was 11.2 ± 0.61.

Turning to “AGGATAACATACAAAAGTACATAAAACTAAAAAAAC [XGTACX_site26]”, the “gcPBM binding intensity (ln)” value turned out to be 11.4 ± 0.72.

Consider “ATATATATATATATATGTACATATATTTTCTTTTTG [XGTACX_site6017]”, for which the “gcPBM binding intensity (ln)” value was found to be 11.1 ± 0.73.

With “TTGTTCTATAATTATACATGCATTAACAGAGTAAAA [TGCATGCA_site909]”, the “gcPBM binding intensity (ln)” value is 10.1 ± 0.2.

Take “AAAAACGATTAATGTGTACACACATAGTTATAAACA [CACACA_site8659]”: the “gcPBM binding intensity (ln)” value came to 11.7 ± 1.2.

With “TTTTTTTTTTTTTAATGTACAAATATGGTGACAAAA [XGTACX_site8709]”, the “gcPBM binding intensity (ln)” value amounted to 11 ± 0.76.

As for “TGGGAATAACGACACACACACACACGGATATAAATA [CACACA_site7633]”, the “gcPBM binding intensity (ln)” value was 10.235 ± 0.007.

Regarding “CTTTTCATCTTCTTAACACACAAAAAAAAAAAAAAA [CACACA_site3886]”, the “gcPBM binding intensity (ln)” value came out at 9.99 ± 0.54.

The record behind these values is the supplement of paper PMC11417369.
